Experimental data published in patent US10519504B2, “Methods for treatment of oncological disorders using epimetabolic shifters, multidimensional intracellular molecules, or environmental influencers” (Berg LLC, priority 2009, dated 2019).

Tests used:
Assay type in all cases: cell-based
SK-MEL-28 cells [1] = test: Antibody microarray (Panorama XP725); settings: SKMEL-28; Q10 24 hr
SK-MEL-28 cells [2] = test: Real-time PCR Apoptosis Array
Method: The formulation of the Q10 was as follows. […] The resulting solution was warmed in a 65° C. water bath and vortexed at high speed. […] For the control vehicle, 9.5 mL of media was added to 500 μL of isopropanol. The control stock was further diluted (2 mL of stock) with 8 mL of media.
RNA was quantified by measuring Optical Density at 260 nm.
(§1) (SABiosciences, Frederick, Md.).

SK-MEL-28 cells [3] = test: Real-time PCR Diabetes Array
From the text: as §1

SK-MEL-28 cells [4] = test: Real-time PCR Oxidative Stress and Antioxidant Defense Array
Method: Experimental details: […] (SABiosciences, Frederick, Md.). […] Further experiments were carried out using SKMEL-28 cells. […] The PCR array (SABiosciences) is a set of optimized real-time PCR primer assays on 96-well plates for pathway or disease focused genes as well as appropriate RNA quality controls. The PCR array performs gene expression analysis with real-time PCR sensitivity and the multi-gene profiling capability of a microarray.

[5] = SK-MEL-28, 100 μM Q10, at 48 hours
[6] = SK-MEL-28, 100 μM Q10, at 48 hours then down regulated

COC1=C(OC)C(=O)C(C/C=C(\C)CC/C=C(\C)CC/C=C(\C)CC/C=C(\C)CC/C=C(\C)CC/C=C(\C)CC/C=C(\C)CC/C=C(\C)CC/C=C(\C)CCC=C(C)C)=C(C)C1=O [Q10, Coenzyme Q10]
protein levels of Bcl-xl, Bmf, BTK, BLK, cJun (pSer63), Connexin 32, PUMA bbc3, BID, Par4, cCbl (SK-MEL-28 cells [1]): altered levels
tumor protein p73 mRNA (SK-MEL-28 cells [2]): strong down regulation
Regulation (SK-MEL-28 cells [2]; SK-MEL-28, 100 μM Q10, after 48 hours (then), gene named above): down regulated
ADRB3 Regulation (SK-MEL-28 cells [3]; [5]): Down Regulated
CEACAM1 Regulation (SK-MEL-28 cells [3]; [5]): Down Regulated
CEBPA Regulation (SK-MEL-28 cells [3]; [5]): Up regulated at 48
CTLA4 Regulation (SK-MEL-28 cells [3]; [5]): Down Regulated
DUSP4 Regulation (SK-MEL-28 cells [3]; [5]): Down Regulated
ENPP1 Regulation (SK-MEL-28 cells [3]; [5]): Down Regulated
FOXC2 Regulation (SK-MEL-28 cells [3]; [5]): Down Regulated
HMOX1 Regulation (SK-MEL-28 cells [3]; [5]): Down Regulated
ICAM1 Regulation (SK-MEL-28 cells [3]; [5]): Down Regulated
IL4R Regulation (SK-MEL-28 cells [3]; [5]): Down Regulated
IRS2 Regulation (SK-MEL-28 cells [3]; [5]): Down Regulated
NKX2-1 Regulation (SK-MEL-28 cells [3]; [5]): Down Regulated
NSF Regulation (SK-MEL-28 cells [3]; [5]): Down Regulated
PIK3CD Regulation (SK-MEL-28 cells [3]; [5]): Down Regulated
PPARG Regulation (SK-MEL-28 cells [3]; [5]): Down Regulated
PRKCB1 Regulation (SK-MEL-28 cells [3]; [5]): Down Regulated
SELL Regulation (SK-MEL-28 cells [3]; [5]): Down Regulated
STXBP1 Regulation (SK-MEL-28 cells [3]; [5]): Down Regulated
TNF Regulation (SK-MEL-28 cells [3]; [5]): Up regulated at 48
G6PD Regulation (SK-MEL-28 cells [3]; [6]): Up regulated at 48
IRS1 Regulation (SK-MEL-28 cells [3]; [6]): Up regulated at 48
SREBF1 Regulation (SK-MEL-28 cells [3]; [6]): Up regulated at 48
TGFB1 Regulation (SK-MEL-28 cells [3]; [6]): Up regulated at 48
VEGFA Regulation (SK-MEL-28 cells [3]; SK-MEL-28, 100 μM Q10, at 58 hours then down regulated): Up regulated at 58
TNFRSF1A Regulation (SK-MEL-28 cells [3]; SK-MEL-28, 100 μM Q10, at 72 hours): Down Regulated
MAPK14 mRNA (SK-MEL-28 cells [3]; SKMEL-28, 100 μM Q10): significantly down-regulated
expression of HNF4A (SK-MEL-28 cells [3]; cells following Q10 treatment (cell type not stated)): upmodulated
Forkhead box M1 (FOXM1) mRNA (SK-MEL-28 cells [4]): down regulated
NOX5 mRNA (SK-MEL-28 cells [4]): levels do not change
PREX1 mRNA (SK-MEL-28 cells [4]): upregulated
Neutrophil cytosolic factor 1 (NCF1) mRNA (SK-MEL-28 cells [4]; 16 hour time point and onward): induced at very high levels after an initial lag phase
NCF1 mRNA level change (SK-MEL-28 cells [4]; SKMEL-28, 100 μM Q10, 16 hr): high
